From PubChem BioAssay AID1362 (SRMLSC, 2008)
This is one part of the list. Shown are side measurements of this screen, not its main read-out; they come without a call. The list favours compounds with an active or inconclusive main result.

Experiment: growth inhibition of WT strain, primary screen, mitochondrial fusion inhibitor project, WT and mutant strains, chemical genetic (AID 1362); note: tested in S. cerevisiae
Conditions: mitochondrial fusion phenotypic screen, at 10 µM

Row | SMILES | inhibition
1 | Oc1ccccc1CN(Cc1ccco1)CC(O)COCc1ccc(Cl)cc1 (stereo unspecified) | 17.8%
2 | O=C(OC(C(=O)Nc1cccc(C(F)(F)F)c1)c1ccccc1)C1CCCCC1 (stereo unspecified) | 10.9%
3 | COc1ccc(C(C)=O)cc1CSc1nc2ccccc2c(=O)n1-c1ccccc1C | 38.9%
4 | CCc1ccc2c(c1)C(c1ccc(N3CCOCC3)cc1)=NNC(c1ccncc1)=N2 | 40.7%
5 | Cc1cccn2cc(COc3ccc(-c4ccccc4)cc3)nc12 | 74.9%
6 | O=C(c1n[nH]c2ccccc12)N1CCN(S(=O)(=O)c2ccc3ccccc3c2)CC1 | 29.2%
7 | Cc1ccccc1N1CCN(C2=NC(=O)/C(=C\c3cccs3)S2)CC1 | 27.3%
8 | CCCCCCCc1ccc(-c2ccc(O)cc2)nc1 | 37.3%
9 | CNC(=S)N1CCN(c2ccc([N+](=O)[O-])cc2)CC1 | -8.55%
10 | Cc1ccc(Cl)cc1NC1=C/C(=N\S(=O)(=O)c2cccs2)c2ccccc2C1=O | 65.8%
11 | O=C(CSc1nnc2scc(-c3ccccc3)n12)Nc1ccc2c(c1)OCCO2 | 14.2%
12 | Cc1ccc(C)c(N2CCN(C(=S)Nc3ccc4nc(N5CCN(C)CC5)cc(C)c4c3)CC2)c1 | 41.5%
13 | O=C1c2ccccc2C(=O)N1CCN1CCCCC1 | -4.37%
14 | CCC(C(=O)OCC(=O)Nc1ccc(SC(F)F)cc1)c1ccccc1 (stereo unspecified) | 10.3%
15 | Cc1c(C(=O)N2CCN(c3ccc(C(F)(F)F)cn3)CC2)oc2ccccc12 | 47.4%
16 | CC1CC(C)CN(c2ncnc3c2cnn3Cc2ccc(Cl)cc2)C1 (stereo unspecified) | 18.6%
17 | C=CCN(CC=C)C(=S)NC(=O)Cc1cccc2ccccc12 | 58.7%
18 | O=c1c2c3c(sc2nc2n1CCC2)CCC3 | -5.45%
19 | CCC(/C=C1\Sc2ccc(OC)cc2N1CC)=C\c1sc2ccc(OC)cc2[n+]1CCCS(=O)(=O)[O-] | 53.2%
20 | O=c1cc(C(F)(F)F)[nH]c2c(C(F)(F)F)cccc12 | 71.2%
21 | S=C(NCc1ccco1)Nc1cc(-c2ccccc2)[nH]n1 | 21.9%
22 | CCCCCCP(=O)(O)c1ccccc1 | 2.28%

Row | SMILES | inhibition
23 | Cc1cccc(-n2c(-c3csc4ccccc34)n[nH]c2=S)c1 | 7.12%
24 | COc1cc2c(cc1NC(=S)Nc1cccc(C(F)(F)F)c1)oc1ccccc12 | 35.5%
25 | Cc1ccc2nc(SC(C(=O)Nc3ccc(F)cc3)c3ccccc3)[nH]c2c1 (stereo unspecified) | 2%
26 | O=C(Nc1nnc(-c2ccc(F)cc2)o1)c1cccc([N+](=O)[O-])c1 | 74.9%
27 | CN1CCN(CC(O)(c2ccc(Cl)cc2)c2ccc(Cl)cc2)CC1 | 65.7%
28 | CC1(C)Cc2ccccc2C(/C(=N\Nc2cccc(Cl)c2)C(N)=O)=N1 | 27.2%
29 | Cc1ccc(C)c(N2CCN(C(=O)C(Cc3ccccc3)n3cccc3)CC2)c1 (stereo unspecified) | 31.4%
30 | CC1(CC(=O)N/N=C/c2ccc(OCc3ccc(Cl)cc3Cl)cc2)OCCCO1 | 7.25%
31 | CC1=NOC(=O)/C1=C\c1ccc(-c2ccc(Br)cc2)o1 | 75%
32 | COc1cc(/C=C2\SC(=S)N(Nc3ccccc3)C2=O)ccc1O | 73.5%
33 | C/C(N)=C(/C#N)C(=O)COC(=O)c1cc(S(=O)(=O)N2CCCCC2)ccc1C | -3.69%
34 | COc1ccc(C(C)(C)C)cc1NC(=O)Nc1ccc2c(c1)OCO2 | 15.4%
35 | O=c1ccccn1Cc1c(Cl)cccc1Cl | -1.19%
36 | COc1ccc(C2N(c3ccc(Cl)cc3)N=C(C(C)=O)N(C)N2C(C)=O)cc1 (stereo unspecified) | 1.32%
37 | Cc1nc2c(=O)n(C)c(=O)n(C)c2nc1Cl | 44.6%
38 | CCc1oc2ccccc2c1C(=O)c1cc(Br)c(O)c(Br)c1 | 63.4%
39 | COc1ccc(Nc2c3c(nc4c(-c5ccccc5)c(C)nn24)CCC3)cc1 | 17.5%
40 | CSc1ccc(/C=N/NC(=O)CNc2ccc3ccccc3c2)cc1 | 51.5%
41 | Cc1ccc(C)c(-c2cc(C(=O)Nc3nccs3)c3ccccc3n2)c1 | 38.3%
42 | N=c1c2c(n(Cc3ccc(Br)cc3)c3c1CCC3)CCCC2 | 30.2%
43 | CN(C)c1ccc(C(CNS(=O)(=O)c2ccc(F)c(F)c2)c2c[nH]c3ccccc23)cc1 (stereo unspecified) | -0.95%
44 | COc1ccc(-c2cc3nc(-c4ccccc4)cc(N4CCC(O)CC4)n3n2)cc1 | 3.48%

Row | SMILES | inhibition
45 | Cc1cc(Cl)ccc1OC(C)C(=O)Nc1ccccc1N1CCOCC1 (stereo unspecified) | 9.85%
46 | COc1cc(CNn2cn[nH]c2=S)cc(Br)c1OCc1ccccc1F | 22.7%
47 | CS(=O)(=O)N(Cc1cc2ccccc2[nH]c1=O)C1CCCCC1 | 6.85%
48 | O=C(Nc1cccnc1)c1ccc(Cl)c(S(=O)(=O)N2CCc3ccccc32)c1 | 18.5%
49 | CC1=NN(c2ccc([N+](=O)[O-])cc2)C(=O)/C1=C\N(C)C | 54.8%
50 | O=c1cc(-c2ccc(C3CCCCC3)cc2)[nH][nH]1 | 15%
51 | CC(C)(C)c1ccccc1NC(=S)NCc1ccccc1 | 58.7%
52 | COCC(C)n1c(SCc2ccc(OC)c(F)c2)nc2ccccc2c1=O (stereo unspecified) | 2.84%
53 | CC(=O)Oc1ccc(N(C(C)=O)S(=O)(=O)c2cccs2)cc1 | -2.75%
54 | Cc1cc(C)c(COc2ccc(/C=N/n3c(C)n[nH]c3=S)cc2)c(C)c1 | 63.2%
55 | Cc1cc(C)c(C)c(N=Nc2nc3ccccc3n2C)c1C | 77.6%
56 | Cc1ccc(O)c(C(=O)/C=C/c2ccc3c(c2)OCCCO3)c1 | 4.05%
57 | Cc1nc(=O)c(-c2ccccc2)c(C)n1CCCCCC(=O)O | -1.16%
58 | CCc1ccc(-c2cn(C3CCCCC3)c(=S)[nH]2)cc1 | 58.5%
59 | COc1cc2c(cc1NC(=O)c1cccc(Br)c1)CCCC2 | 21.9%
60 | CCCOC(=O)CN1C(=O)c2ccccc2C1=O | 3.9%
61 | O=C(Nn1c(Cc2ccccc2)nc2ccccc2c1=O)c1c(O)c2cccc3c2n(c1=O)CCC3 | 64.7%
62 | Cc1ccc(Cl)cc1N1CCN(S(=O)(=O)N2CCCCC2)CC1 | 61.6%
63 | CCOC(=O)Cn1c(=NC(=O)c2ccc([N+](=O)[O-])s2)sc2ccccc21 | -0.19%
64 | O=c1c2c(nc3n1CCCCC3)-c1ccccc1CC21CCCCC1 | 34.4%
65 | Cc1ccc(-c2cc(C(=O)N/N=C/C(Br)=C/c3ccccc3)n[nH]2)o1 | 38.7%
66 | CC(=O)N(C)c1nnc(-c2cnccn2)s1 | -23.6%

Row | SMILES | inhibition
67 | C=C1C(=O)C=C2CN(C(=O)c3ccccc3)[C@@](Cc3ccc(F)cc3)(C(=O)OC)[C@@H]12 | 43.3%
68 | S=C(NCc1ccccc1)N1CCN(c2cccc(Cl)c2)CC1 | 64.7%
69 | Cc1ccc(NC(=O)C(OC(=O)c2ccc(O)cc2)c2ccccc2)cc1Cl (stereo unspecified) | 83%
70 | CCCCNC(=S)Nc1ccc(Oc2ccccc2)cc1 | 60.6%
71 | COc1ccc(-c2nc3ccccn3c2CN2CCN(c3ccccc3F)CC2)cc1 | 60.7%
72 | O=C(Nc1cccc(Cl)c1N1CCCC1)c1ccc(Br)o1 | 12.8%
73 | C[C@]1(C(=O)NCCCNc2ncc(C(F)(F)F)cc2Cl)C=C[C@@H](Cc2ccccc2)N1C(=O)c1ccccc1 | -6.34%
74 | Cc1cc(-c2sccc2Br)nc(-n2cccc2)n1 | 52.4%
75 | O=C(CNC(=S)N(Cc1ccccc1)Cc1ccccc1F)NCc1ccccc1 | 18.1%
76 | O=C(/C=C/C=C/c1ccccc1)CC1(O)C(=O)N(CCc2ccccc2)c2ccccc21 (stereo unspecified) | 35.8%
77 | OCC1(Cc2cccc(C(F)(F)F)c2)CCN(Cc2cc(F)cc(F)c2)CC1 | 64.7%
78 | CN1\C(=C/C=C/C=C/C=[N+](C)C)C(C)(C)c2ccccc21 | 80.8%
79 | O=c1c2cn[nH]c2nc(SCc2c(F)cccc2F)n1-c1ccc(Cl)cc1 | 14%
80 | CC(/C=C1\SC(=S)N(NC(=O)c2ccc(O)cc2)C1=O)=C\c1ccccc1 | 87.2%
81 | Cc1cccc2nc(-c3ccccc3)nc(N[C@@H](CO)c3ccccc3)c12 | 40.2%
82 | Cn1cccc1/C=N/n1c(-c2ccc(Cl)cc2Cl)n[nH]c1=S | 41.9%
83 | O=C(N/C=N/OCc1ccc(Cl)cc1Cl)NOCc1ncc(C(F)(F)F)cc1Cl | 9.06%
84 | COc1ccc(/C=C2\CCCC3C2=NC(=S)NC3c2ccc(OC)cc2)cc1 (stereo unspecified) | 47.1%
85 | Cc1ccc(-c2cc3c(N=O)c4ccccc4c-3n[nH]2)cc1 | 59.7%
86 | CCOC(=O)c1c(CN2CCOCC2)n(-c2ccccc2)c2cc(Br)c(OC)cc12 | 32.4%
87 | COc1ccc(C)cc1N1C(=N)/C(=C2/Nc3ccccc3S2)C(c2ccccc2)C1=O (stereo unspecified) | 44.6%
88 | CC(C)(C)NC(=S)NC(=O)C12CCC3CC(CC(C3)C1)C2 | 44.8%

Row | SMILES | inhibition
89 | COc1cccc(NC(=S)N(Cc2ccccn2)Cc2ccccc2Cl)c1 | 46.1%
90 | Cc1ccc(CNC(=O)CNC(=S)N(Cc2ccccc2)Cc2ccccc2F)cc1 | 31.5%
91 | S=c1[nH]ncn1/N=C/c1cccc(Oc2ccccc2)c1 | 69.2%
92 | Cc1c(C(=O)Nc2ccc(Oc3ccccc3)cc2)sc2nc3n(c(=O)c12)CCC3 | 33.6%
93 | COC(=O)[C@@H]1CC[C@H](C)[C@@H](c2ccc(C)cc2)N1C(=O)c1ccc(/C=N/O[C@@H](C)CN2CCCCc3nc(C)c(C)cc32)cc1 | 9.03%
94 | CCCC(NC(=S)NCC1CCCO1)C12CC3CC(CC(C3)C1)C2 (stereo unspecified) | 11.1%
95 | C=C(C)C1Cc2c(C)nn(-c3cccc4ccccc34)c2C1 (stereo unspecified) | 61.8%
96 | Cc1cc(N/N=C2\CC(C)CC(C)(C)C2)nc2ccccc12 (stereo unspecified) | 58.6%
97 | CCOC(=O)c1c(C)nc2ccc(Cl)cc2c1-c1ccccc1 | 28.1%
98 | CCCc1sc(N/N=C/c2ccccn2)nc1-c1ccc(Br)cc1 | 4.03%
99 | CC(C)(C)n1nnnc1C(c1ccc(Cl)cc1)N(Cc1cccnc1)Cc1ccco1 (stereo unspecified) | -3.11%
100 | Cc1cc(Br)c(Cl)cc1NC(=O)CN1C(=O)C2C3CC(c4ccccc4)C(C3)C2C1=O (stereo unspecified) | 40.8%
101 | Cc1ccc(C2(C)CC(C)(C)N(C(=O)CSc3nnc(C)s3)c3ccccc32)cc1 (stereo unspecified) | 17%
102 | Cc1cccc(-n2c(CCc3ccccc3)nnc2SCC(=O)c2ccccc2)c1 | 9.06%
103 | CCOc1ccccc1NC(=S)NCCc1ccc(F)cc1 | 54%
104 | Cc1nn(C(C)(C)C)c(OC(=O)c2ccc3c(c2)OCO3)c1Sc1ccccc1 | 7.78%
105 | CCc1cccc(NC(=S)N2CCC(c3ccccc3)C2)c1 (stereo unspecified) | 70.8%
106 | Cc1ccc(C)c(NC(=S)NCCSc2ccc(Cl)cc2)c1 | 28.4%
